# Measurements: PubChem BioAssay AID624417 (National Center for Advancing Translational Sciences (NCATS), 2012)
# The whole screen tested about 410,000 compounds, of which about 6,400 (1.6%) were called active. Inconclusive means that the source gave no clear call. Such entries were picked first, then a sample of the others. The call rests on the fitted dose curve; in most records, active means well fitted inhibition curve with a large enough effect; inconclusive means small, poorly fitted or top-dose-only effect; inactive means no such curve, though single readings can be large or run the other way. Potencies of inconclusive entries are left out as doubtful fits.
# Molecular target: Glucagon-like peptide 1 receptor (Homo sapiens) (UniProt P43220)
# UniProt P43220, sequence (P43220 whole entry, looked up): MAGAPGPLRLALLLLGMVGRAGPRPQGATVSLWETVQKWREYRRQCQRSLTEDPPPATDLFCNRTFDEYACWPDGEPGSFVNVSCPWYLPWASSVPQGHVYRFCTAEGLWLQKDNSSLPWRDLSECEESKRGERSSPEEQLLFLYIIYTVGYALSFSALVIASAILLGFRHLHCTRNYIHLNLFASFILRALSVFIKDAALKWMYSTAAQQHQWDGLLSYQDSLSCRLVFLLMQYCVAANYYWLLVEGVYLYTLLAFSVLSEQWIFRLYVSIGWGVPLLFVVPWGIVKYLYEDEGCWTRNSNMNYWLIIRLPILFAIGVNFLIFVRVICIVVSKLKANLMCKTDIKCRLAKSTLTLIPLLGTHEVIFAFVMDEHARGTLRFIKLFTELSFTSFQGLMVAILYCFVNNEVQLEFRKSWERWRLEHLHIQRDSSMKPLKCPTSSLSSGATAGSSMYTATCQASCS
# Assay: qHTS of GLP-1 Receptor Inverse Agonists (Inhibition Mode); further: nearly all actives have a fitted effect of over 55% in size
# Details: HEK293 GLP-1R CRE-luciferase, luminescence, 24 h, GLP-1R form is constitutively active; activity change, negative = inhibition: at 38.3 µM (top of the series) unless noted
# Procedure, shortened: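 Luminescence readout: a drop in cAMP-driven luciferase signal flags inverse agonism at a constitutively active GLP-1R stably expressed in HEK293. Compound exposure lasted 24 hr at 37 deg C, 5% CO2.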
# On the % scale 0 is the no-effect control and ±100 the full control effect; potency means the concentration at half of the fitted maximal effect; tags describe the fitted curve by direction and shape.
SMILES,"activity change, negative = inhibition",Potency
CC(=O)c1ccc(N2CCN(c3ncccn3)CC2)c([N+](=O)[O-])c1,inactive: 19.2%,
O=C1COc2ccc(S(=O)(=O)NCCc3ccc(Cl)cc3)cc2N1,,"inconclusive [inhibitor, partial curve, poor fit]"
Cc1ccc(-n2ncc(C(=O)N(C)Cc3ccccc3)c2-n2cccc2)cc1,,"inconclusive [inhibitor, single point]"
CCN1C(=O)N(S(=O)(=O)c2ccc(C)cc2)[C@@H](c2ccccc2)C(C(=O)OC)=C1C,,"inconclusive [inhibitor, single point]"
N#CC(C#N)=Cc1cc2ccccc2nc1N1CCCCC1,,"inconclusive [inhibitor, single point]"
CCOC(=O)c1c(NC(=O)c2ccccc2C(=O)O)sc2c1CCC2,,"inconclusive [inhibitor, single point]"
N#Cc1c(NC(=O)CSc2ncccn2)oc(-c2ccccc2)c1-c1ccccc1,,"inconclusive [inhibitor, single point]"
COc1ccc(C(=O)Oc2ccc(F)cc2C(=O)/C=C/c2ccc(OC)c(OC)c2)cc1,,"inconclusive [inhibitor, single point]"
CSc1ccc(C(=O)N2CCC(CCC(=O)NCc3ccc(F)cc3)CC2)cc1,,"inconclusive [inhibitor, single point]"
CC(=O)Nc1cccc(-c2nnc(-c3ccccc3)o2)c1,inactive: 41%,
O=C(Nc1sc2c(c1C(=O)O)CCC2)c1ccccc1F,inactive: -23.1%,
CCn1c(C)c(C)c2cc(C(=O)NC3CCCCCC3)ccc21,,"inconclusive [inhibitor, full curve, poor fit]"
CCCC(=O)N1CC(=O)Nc2ccc(C)cc2C1c1ccccc1 (stereo not given),inactive: 14.6%,
Cc1ccc(N2C(=O)N(C(C)C)C(C)(C)CC2(C)O)cc1 (stereo not given),,"inconclusive [inhibitor, partial curve, poor fit]"
O=C(NCc1nc2ccccc2[nH]1)C1=C[C@@H](C2CCCCC2)C[C@@H](OCc2ccc(CO)cc2)O1,,"inconclusive [inhibitor, single point]"
CN(C)Cc1c(C(=O)N/N=C/c2ccccc2OCc2c(F)cccc2Cl)nnn1-c1nonc1N,,"inconclusive [inhibitor, single point]"
Cc1cccc(Cn2c(C)c(C)c3cc(C(=O)NCCN4CCOCC4)ccc32)c1,,"inconclusive [inhibitor, partial curve, poor fit]"
N#Cc1ccc(OCC(=O)OCC(=O)c2ccccc2)cc1,inactive: 0.29%,
CCOC(=O)CSc1nnc(CNc2cccc(Cl)c2)n1-c1ccccc1,,"inconclusive [inhibitor, single point]"
CN(C)S(=O)(=O)c1cccc(NC(=S)Nc2cccc3cnccc23)c1,,"inconclusive [inhibitor, single point]"
CC(=O)c1ccc(-c2cnc3c(NC=O)cc(-c4cccc(C(=O)N(C)C)c4)cn23)cc1,,"inconclusive [inhibitor, single point]"
CCN(CC)CCNC(=O)C1c2ccccc2Oc2ccccc21,,"inconclusive [inhibitor, single point]"

SMILES,"activity change, negative = inhibition",Potency
CC(C)[C@H](NS(=O)(=O)c1ccc2c(c1)OCCO2)C(=O)OCC(=O)Nc1cccc(Cl)c1Cl,,"inconclusive [inhibitor, partial curve]"
COC(=O)Cc1ccc(NC(=O)c2ccc(C)c(C)c2)cc1,,"inconclusive [inhibitor, single point]"
COC(=O)c1ccccc1COc1cccn2c(N(C)C(=O)CCC3CCCC3)c(C)nc12,,"inconclusive [inhibitor, single point]"
CCN(CC)CCCn1c2c(c(SCC(=O)Nc3ccc4c(c3)OCCO4)nc1=O)CCC2,,"inconclusive [inhibitor, partial curve, poor fit]"
Cc1onc(-c2ccccc2Cl)c1C(=O)N(C)Cc1ccccc1,,"inconclusive [inhibitor, partial curve]"
CN(C)C(=O)c1ccc2c(c1)C1C3CCC(C3)C1C(c1ccccc1)N2 (stereo not given),,"inconclusive [inhibitor, partial curve, poor fit]"
COc1ccc(Br)cc1CN1CCN(C(=O)c2ccco2)CC1,inactive: -11.3%,
CC(C)C[C@H]1CN(CCCC[C@@H]2CNC(=O)C(=O)N2CC2CCCCC2)C(=O)C(=O)N1CCc1ccccc1,inactive: 15.5%,
O=C(C1CCN(S(=O)(=O)c2c(Cl)cccc2Cl)CC1)N1CCCCCCC1,,"inconclusive [inhibitor, partial curve, poor fit]"
COc1ccc(S(=O)(=O)NCC(c2ccc3c(c2)OCO3)N2CCN(c3ccccc3)CC2)cc1 (stereo not given),,"inconclusive [inhibitor, partial curve, poor fit]"
COCCCNC(=S)N/N=C/c1ccc(N(C)C)cc1,,"inconclusive [inhibitor, single point]"
Cc1sc2ncnc(Sc3nnnn3-c3ccccc3)c2c1C,inactive: 11.6%,
COc1cccc(N=C2SC(C(=O)Nc3cccc(Cl)c3)CC(=O)N2C)c1 (stereo not given),,"inconclusive [inhibitor, single point]"
CN(C(=O)c1ccc(S(=O)(=O)c2cccc(Cl)c2)c([N+](=O)[O-])c1)C1CCCCC1,,"inconclusive [inhibitor, partial curve, poor fit]"
CC(C)(C)c1ccc(O)c(/C=N\O)c1,,"inconclusive [inhibitor, single point]"
COc1ccc(S(=O)(=O)N(C)C[C@H]2Oc3ccc(NC(=O)Nc4ccccc4)cc3C(=O)N([C@H](C)CO)C[C@@H]2C)cc1,,"inconclusive [inhibitor, single point]"
CCc1ccccc1NC(=O)CCc1nc(-c2cccs2)no1,,"inconclusive [inhibitor, single point]"
COc1cc(C2=Nc3ccc(Br)cc3C(c3ccccc3)N2CC(=O)NN)cc(OC)c1OC (stereo not given),,"inconclusive [inhibitor, single point]"
CC(=O)Nc1ccc(-c2cn3cc(C)ccc3n2)cc1,inactive: -19.3%,
O=C(Cc1ccc(Br)cc1)NCCc1ccc(F)cc1,,"inconclusive [inhibitor, partial curve, poor fit]"
O=C(/C=C/c1ccc(F)cc1)NC(=S)NNC(=O)c1cnccn1,inactive: 6.8%,
Cc1csc(NC(=O)c2cccc(S(=O)(=O)N3CCCCC3)c2)n1,,"inconclusive [inhibitor, partial curve, poor fit]"

SMILES,"activity change, negative = inhibition",Potency
Cc1ccc(/C=C/c2nc3ccccc3n2S(=O)(=O)c2ccc(Br)cc2)cc1,,"inconclusive [inhibitor, partial curve, poor fit]"
CCc1nc2ccc(C(=O)N(C)Cc3ccco3)cn2c1N(C)C(=O)Cc1ccccc1,inactive: -3.62%,
O=[N+]([O-])c1ccc(CN2CCN(c3ncccn3)CC2)cc1,inactive: -8.99%,
CCc1nc(N2CCN(C(=O)c3ccco3)CC2)c(C#N)c2c1COC(C)(C)C2,inactive: -2.87%,
CCOC(=O)c1sc(Nc2ccc(F)cc2)nc1C,,"inconclusive [inhibitor, single point]"
O=c1[nH]c(Sc2ccc([N+](=O)[O-])cc2[N+](=O)[O-])nc2ccccc12,inactive: -9.77%,
CCN(Cc1ccncc1)C(=O)c1ccccc1NS(=O)(=O)c1ccc(Br)cc1,,"inconclusive [inhibitor, full curve, poor fit]"
CCCn1c(=O)c(-c2nc3ccccc3[nH]2)c(O)c2ccccc21,inactive: 17.1%,
Cc1ccc(C2(c3noc(CN4C[C@@H](C)O[C@@H](C)C4)n3)CCCC2)cc1,,"inconclusive [inhibitor, partial curve, poor fit]"
O=C(NCCNC1CCC(c2ccccc2)CC1)c1cccs1 (stereo not given),,"inconclusive [inhibitor, partial curve, poor fit]"
Cc1ccccc1Nc1nnc(SCC(=O)NCc2cccs2)s1,,"inconclusive [inhibitor, single point]"
CCC(C)c1ccc(S(=O)(=O)N2CCN(C(=O)COc3ccc4c(C)cc(=O)oc4c3)CC2)cc1 (stereo not given),,"inconclusive [inhibitor, partial curve]"
N#Cc1ccccc1NC(=O)c1cccc(COc2ccc(Cl)cc2Cl)c1,,"inconclusive [inhibitor, single point]"
Cc1ccc(C(=O)COC(=O)c2cnccn2)cc1[N+](=O)[O-],inactive: -21.5%,
Fc1ccccc1CNC(=S)NC1CCCCC1,,"inconclusive [inhibitor, partial curve, poor fit]"
Cc1cccc(N2CCN(C(=O)CCCn3ncn4c(cc5occc54)c3=O)CC2)c1C,inactive: -14.9%,
COc1cc(OC)cc(C(=O)N[C@@H](CCSC)c2nc3ccccc3[nH]2)c1,inactive: 8.2%,
O=C(/C=C/c1ccc(F)cc1)NCCCN1CCN(CCCNC(=O)/C=C/c2ccc(F)cc2)CC1,,"inconclusive [inhibitor, partial curve, poor fit]"
CCOc1cc(CNCCSc2nnnn2C)cc(Cl)c1OCc1ccc(Cl)cc1,,"inconclusive [inhibitor, partial curve, poor fit]"
CCOC(=O)N1CCC(NC(=S)Nc2ccc3nc(N4CCN(CC)CC4)cc(C)c3c2)CC1,,active: 8.91 µM
c1ccc(CSc2cc3ccccc3[nH]2)cc1,,"inconclusive [inhibitor, single point]"
